The text below walks through data of the RNAGym collection of RNA variant scans (doi:10.7554/elife.90254).

B1: LINE1-full (parent)
chain: UACGUAGGUGGUUUUCCCCUGAUAGUGCUAAGGGGGCCUGGAAGUUUGGACUGGGCAGAGCUCAACACAGCGUGGCAAAGUGGCUGUGGCUAGACUGCCUCUCUGGAUUCCUCGUCACUCAGCAGGGCAUCUCUGAGAGAAAUGCC

The source gives no read counts; variants with many changes may rest on few reads.

The variants in the series derive from B1. Briefly: self-cleavage, relative activity (ratio to wild type); higher = more cleavage; in vitro, sequencing; the parent is a self-cleaving ribozyme.
Take AACGUAGGUGGUUCUCCCCUGAUAGUGCUAAGGGGGCCUGGAAGUUUGGACUGGGCAGAGCUCUACACAGCGUGGCAAAGUGGCUGUGGCUAGACUGCUUCUCUGGAUUCCUCGUCACUCAGCUGGGCAUCUCUGAGAGAAAUGCC: the self-cleavage stood at 0.3.
The same measure for AACGUAGGUGGCUUUCCCCUGAUAGUGCUACGGGGGCCUGGAAGUUUGGACUGGGCAGAGCUCAACACAGCGUGGCAAAGUGGCUGUGGCUAGACUGCCUCUCUGGAUUCCUCGUCACUCAGCAGGGCAUCCCUGAGGGAAAUGCC: 1.78.
As to AACGUAGGUGGUUUUCCCCUGAUAGAGCUAAGGGGGCCUGGAAGUUUGGACUGGGCGGAGCUCAACACAGCGUGGCAAAGUGGCUGUGGCUAGACAGCCUCUCUGGAUUCCUCGUCACUCAGCAGGGCAUCUCUGAGAGAAAUGCC, the self-cleavage turned out to be 0.13.
Turning to AACGUAGGUGGUUUUCCCCUGAUAGUGCUACGGGGGCCUGGAAGUUUGGACUGGGCAGAGCUCAACACAGCGUGGCAAAGUGGCUGUGGCUAGACUGCCUCUCUGGAUUCCUCGUCACUCAGCAGGGCAUCUCUGAGUGAAUUGCC, the self-cleavage is 1.06.
The value for AACGUAGGUGGUUUUCUCCUGAUAGCGCUAAGGGGGCCUGGAAGUUUGGACUGGGCAGAGCUCAACACAGCGUGGCAAAGUGGCUGUGGCUGGACUGCCUCACUGGAUUCCUCGUCACUCAGCAGGGCUUCUCUGAGAGAAAUGCC was 0.32; that for AACGUAGGUGGUUUUCCCCUGAUAGUGCUAAGGGGGCCUGGAAGUUUGGACUGGGCAGAGCUCAACACAGCGUGGCAGAGUGGCUGUGGCUAGACUGCCUCUCUGGAUUCCUCGUCACUCAGCAGGGCAUCUCCGAGAGAAAUGCC was 0.
The value for AACGUAGGUGGUUUUCCCCUGAUAGUGCUAAGGGGGCCUGGAAGUUUGGACUGGGCAGAGCUCAACACAGCAAGGCAAAGUGGCUGUGGCUAGACUGCCUCUCUGGAUUCCUCGUCACUCAGCAGGGCAUCUCUGAGAGAAAUGCC was 2.78; that for AGCGUAGGUGGUUUUCCCCUGAUAGUGCUAAGGGGGCCUGGAAGUCUGGACUGGGCAGAGCUCAACACAGCGUGGCAAAGUGGCUGUGGCUAGACUGCCUCUCUGGAUUCCUCGUCACUCAGCAGGGCAUCUCUGAGAGAAAUGCC was 0.56.
With AACGUAGGUGGUAUUCCCCUGAUAGUGCUAAGGGGGCCUGGAGGUUUGGACUGGGCAGAGCUCAACACAGCGUGGCAAAGUGGCUGUGGCUAGACUGCCUCCCUGGAUUCCUCGUCACUCAGCAGGGCAUCUCUGAGAGAAAUGCC, the self-cleavage amounted to 1.5.
The value for AACGUAGGUGGUUUUCCCCUGAUAGUGCUAAGGGAGCCUGGAAGUUUGGACUGGGCAGAGCUCAACACAGCGUGGCAAAGUGGCUGUGGCUAGACUGCCUCUCUGGAUUCCUCGUCACUCAGCAGGGCAUCUCUGAGAGAAAGGCC was 0.93; that for AACGUAGGUGGUUUUCCCCUGAUAGUGCUAAGGGGGCCAGGAAGUUUGGACUGGGCAGAGCUCAGCACAGCGAGGCAAAGUGGCUGAGGCUAGACUGCCUCUCUGGAUUCCUCGUCACUCAGCAGGGCAUCUCUGAGAGAAACGCC was 0.15; that for AACGUAGGCGGUUUUCCCCUGAUAGUGCUAAGGGGGCCUGGGAGUUUGGACUGGGCAGAGCUCAACACAGCGUGGCAAAGAGGCUGUGGCUAUACUGCCUCUCUGGAUUCCUCGUCACUCAGCAGGGCAUCUCUGAGAGAAAUGCC was 0.16.
With AACGUAGGUGGUUUUCCCCUGAUGGUGCUAAGGGGGCCUGGAAGUUUGGACUGGGCAGAGUUCAACACAGCGUGGCAAAGUGGCUGUGACUAGACUGCCUCUCUGGAUCCCUCGUCACUCAGCAGGGCAUCUCUGCGAGGAAUGCC, the self-cleavage turned out to be 0.14.
The value for AACGUAGGUGGUUUUCCCCCGAUAGUGCUAAGGGGGCCUGGAAGUUAGGACUGGGCAGAGCUCAACACAGCGAGGCAAAGUGGCUGUGGCUAGACUGCCUCUCUGGAUUCCUCGUCACUCAGCAGGGCAUCUCUGAGAGAAAUGCC was 1.21; that for AGCGUAGGUGGUUUUCCCCUGAUAGUGCUAAGGGGGCCCGGAAGUUUGGACUGGGCAGAGCUCAACGCAGCGUGGCAAAGCGGCUGUAGCUAGACUGCCUCUCUGGAUUCCUCGUCACUCAGCAGGGCAUCUCUGAGAGAAAUGCC was 1.53.
The value for AACGUAGGUGGUUUUCCCCUGGUAGUGCUAAGGGGGCCUGGAAGUUUGGGCUGGGCAGAGCUCUAAACAGCGUGGCAAAGUGGCUGUGGCUAGACUGCCUCUCUGGAUUCCUCGUCACUCAGCAGGGCAUCUCUGAGAGAAAUGCC was 0.46; that for AACGUAGGUGGUUUUCCCCUGAUAGUGCUAAGGGGGCCUGGAAGUUUGGACUGGGCAGAGCUCAACACAGCGUGGCAAAGUAGCCGUGGCUAGACUGCCUCUCUGGAUUCCUCGUCACUCAGCAGGGCAUCUCUGAGAGAAAUGCC was 0.41; that for AACGUAGGUGGUUUUCCCCUGAUAGUGCUAAGGGGGCCAGGACGUUUGGACUGGGCAGAGCUCAACACAGCGUGGCAGAGUGGCUGUGGCUAGACUGCCUCUCUGGAUUCCUCGUCACUCAGCAGGGCAUCUCUGAGAGAAAUGCC was 1.23.
The same measure for AACGUAGGUGGUUCUCCCCUGAUAGUGCUAAGGGGGCCUGGAAGUUUGGACUGGGCAGAGCUCAACACAGCGUGGCAAAGUGGCUGUGGCUAGACUGCCUCUCUGGAUCCCUCGUCACUCAGCAGGGCAUCUCUGUGAGAGAUGCC: 0.49; for AACGCAGGUGGUUUUCCCCUGAUAGUGCUAAGGGGGCCUGGAAGUUUGGACUGGGCAGAGCUCAACACAGCGUGGCGAAGUGGCUGUGGCUGGACUGCCUCUCUGGAUUCCUCGUCACUCAGCAGGGCAUCUCUGAGAGAAAUGCC: 1.53.
As to AACGUAGGUGGUUUUCCCCUGAUAGUGCUAAGGGGGCCUGGAAGUUUGGACUGGGCAGAGCUCAACACGGCGUGGCAAAGUGGCUGUGGCUAGACUGCCUCUCUGGAUUCCUCGUCACUCAGCUGGGCAUCUCUGAGAGAAAUGCC, the self-cleavage was 0.63.
Take AACGUAGGUGGUUUUCCCCUGAUAGUGCUAAGGGGGCCUGGAAGUUUGGUCUGGGCAGGGCUCAACACAGCGUGGCAAAGUGGCUGUGGCUAGACUGCCUCUCUGGAUUCCUCGUCACUCAGCAGGGCAUCUCUGAGAGAAAUGCC: the self-cleavage was 0.17.
The same measure for AACGUAGGUGGUUUUCCCCUGAUAGUGCUAAGGGGGCCUGGAAGUUUGGACUGGGCAGAACUCAACACAGCGUGGCAGAGUGGCUGUGGCUAGACUGCCUCUCUGGAUUCCUCGUCACUCAGCAGGGCUCCUCUGAGAGAAAUGCC: 0.08.
The same measure for AACGUAGGUGGUUUUCCCCUGAUAGUGCUAAGGGGGCCCGGAAGUUUGGACUGGGCAGAGCUCAACACGGCGUGGCUAAGUGGCUGUGGCUAGACUGCCUCUCUGGAUUCCUCGUCACUCAGCAGGGCAUCUCUGAGAGGAAUGCC: 0.67; for AACGAAGGUGGUUUUCCCCUGAUAGUGCUAAGGGGGCCUGGAAGUUUGGACUGGGCAGAGCGCAACGCAGUGUGGCUAAGUGGCUGUGGCUAGACUGCCACUCUGGAUUCCGCGUCACUCAGCAGGGCAUCUCUGAGAGAAAUGCC: 0.
The same measure for AACGUUGGUGGUUUUCCCCUGAUAGUGCUAAGGGGGCCUGGAAGUUUGGACAGGGCAGAGCUCAACACAGCGUGGCAAAGUGGCUGUGGCUAGACUGCCUCUCUGGAUUCCUCGUCACUCAGCAGGGCAUCACUGGGAGGAAUGCC: 1.52; for AACGUAGGUGGUUUUCCUCUGAUAGUGCUAAGGGGGCUUGGAAGUUUGGACUGGGCAGAGCUCAACACAGCGUGGCAAAGCGGCUGUGGCUAGACUGCCUCUCUGGAUUCCUCGUCACUCAGCAGGGCAUCUCUGAGAGAAAUGCC: 1.27; for AACGUAGGAGGUUUUCCCCUGAUAGUGCUAAGGGGGCCUGGAAGCUUGGACUGGGCAGAGCUCAACACAGCGUGGCAAAGUGGCUGUGGCUAGACUGCCUCUCUGGAUUCCUCGUCACUCAGCAGGGCACCUCUGAGAGAAAUGCC: 1.44.
AACGUAGGUGGUUUUCCCCUGAUGGUGCUAAGGGGGCCUGGGAGUUUGGACUGGGCAGAGCUCAACACAGCGUGGCAAAGUGGCUGUGGCUAGACUGCCUCUCUGGAUUCCUCGUCACUCAGCAGGGCAUCUCUGAGAGAAAUGCC: the self-cleavage amounted to 0.33.
The same measure for AAUGUAGGUGGUUUUCCCCUGAUAGUGCUAAGGGGGCCUGGAAGUUUGGACUGGGCGGAGCUCAACACAGCGUGGCAAAGUGGCUGUGGCUAGACUGCCUCUCUGGAUUCCUCGUCACUCAGCAGGGCAUCUCUGAGAGAAAUGCC: 1.08; for AACGUAGGUGGUUUUCCCCCGAUAGUGCUAAGGGGGCCUGGAAGUUUGGACUGGGGAGAGCUCAACACAGCGUGGCAAAGUGGCUGUGGCUAGACUGCCUCUCUGGACUCCUCGUCACUCAGCAGGGCAUCUCUGAGAGAAAUGCC: 0.28; for AACGUAGGUGGUUUUCCCCUGAUAGUGCUAGGGGGGCCUGGAAGUUUGGACUGUGCAGAGCUCAGCACAGCGUGGCAAAGUGGCUGUGGCUAGACUGCCUCUCUGGAUUCCUCGUCACUCGGCAGGGCAUCUCUGAGAGAAAUGCC: 0.43.
AACGUAGGUGGUUUACCCCUGGUAGUGCUAAGGGGGCCUGGAAGUUUGGACUGGGCAGAGCUCAACACAGCGUGGCAAGGUGGCUGUGGCUAGACUGCCUCUCUGGAUUCCUCGUCACUCAGCAGGGCAUCUCUGAGAGAAAUGCC: the self-cleavage turned out to be 0.97.
On to AACGUAGGUGGUUUUCCCCUGAUAGUGCUAAGGGGGCCUGGAAGUUUGGACUGGGCAGAGCUCAACACUGCGUGGCAAAGUGGCUGUGGCUAGACUGCCUCUCUGGAUUCCACGUCACUCAGCAGGGCAUCUCUGAGAGAAAUGCC, for which the self-cleavage stood at 0.04.
The value for AACGUAGGUGGUUUUCCCCUGAUAGUGCUAGGGGGGCCUGGAGGUUUGGACUGGGCAGAGCUCAACACAGCGUGGCAAAGUGGCUGUGGCUAGACUGCCUCUCUGGAUUCCUCGACACUCAGCAGGGCAUCUCUGAGAGAAAUGCC was 0.38; that for AACGUUGGUGGUUUUCCCCUGAUAGUGCUAAGGGGGCCUGGAAGUUUGGACUGGGCGGAGCUCAACACAGCGUGGCAAAGUGGCUGUGGCUAGACUGCCUCUCUGGAUUCCUCGUCACUCGGCAGGGCAUCUCUGAGAGAAAUGCC was 0.
Regarding AACGUAGGUGGUUUUCCCCUGAUAGUGCUAAGGGGGCCUGGAAGUUUGGACUGGGCAGUGCCCAACACAGCGUGGCAAAGUGGCUGUGGCUAGACUGCCUCUCUGGAUUCCUCGUCACUCAGCGGGGCAUCUCUGAGAGAAAUGCC, the self-cleavage came to 0.
The value for AACGUAGGCGGUUUUCCCCUGAUAGUGCUAAGGGGGCCUGGAAGUUUGGACUGGGCAGAGCUCAACACAGCGUGGCAAAGUGGCUGUGGCUAGACUGCCUCUCUGGAAUCCUCGUCGCUCAGCAGGGCAUCUCUGAGAGAAAUGCC was 1.41; that for AGCGUAGGUGGUUUUCCCCUGAUAGUGCUAAGGGGGCCUGGGAGUUUGGACUGGGCAGAGCUCAACACAGCGUGGCAAAGUGGCUGUAGCUAGACUGCCUCUCUGGAUUCCUCGUCACUCAGCAGGGCAUCUCUGAGAGAAAUGCC was 0.26.
